{
  "source": "paper PMC12148503",
  "about": "“Molecular Basis of Interchain Disulfide Bond Formation in BMP-9 and BMP-10” (Journal of molecular biology, 2025)",
  "binders": {"B1": {"name": "ActRIIa extracellular domain (human activin receptor type-2A […]) (receptor)", "chain": "not shown", "notes": "Human activin receptor type-2A, […]; Deglycosylated with PNGase F; also called ActRIla; source: expi293 (suspension HEK293), secreted; nickel column, PNGase F deglycosylation, SEC (Superdex 75)"}},
  "molecular_target": "T1, BMP-9 monomer (cysteinylated BMP-9 growth factor) (human, UniProt Q9UK05 320-429, A321S, Cys-392 cysteinylated (cysteine attached by a disulfide, +119 Da))",
  "T1 construct": "Human BMP-9 growth factor released by factor Xa from Pro-(X)-BMP-9 (proBMP9 residues 23-429, A321S, furin site RRKR replaced by IEGR); Monomer without the interchain disulfide; crystallises as a non-covalent dimer; also called purified BMP-9 monomer; Cysteinylated BMP-9 WT Monomer; source: expi293 (suspension HEK293), secreted as Pro-(X)-BMP-9; IMAC, factor Xa digestion, C18 reverse phase",
  "T1 sequence (looked up)": "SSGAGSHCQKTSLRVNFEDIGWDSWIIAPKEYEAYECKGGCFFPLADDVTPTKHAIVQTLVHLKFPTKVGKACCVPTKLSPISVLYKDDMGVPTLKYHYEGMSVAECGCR",
  "test": "SEC-MALS; BMP-9 monomer injected at 6.58 μM as 1:1.6 BMP-9M:ActRIIa; Superdex 75 Increase 10/300 GL; 150 mM NaCl, 100 mM Tris pH 7.5; monomer to non-covalent dimer",
  "conditions": "both partners purified",
  "data": [
    {"binder": "B1", "values": [
      {"measurement": "binding result", "result": "binds"}
    ]}
  ]
}
